From PubChem BioAssay AID1963576 (National Center for Advancing Translational Sciences (NCATS), 2024)
Hit rate of the full screen: of about 46,000 compounds, about 60 (0.1%) were called active. About 3% were inconclusive and are not listed. Calls come from the whole dose curve; as a rule, active = well fitted inhibition curve with a large enough effect; inconclusive = small, poorly fitted or top-dose-only effect; inactive = no such curve, though single readings can be large or run the other way. The list shows a part of the results.

assay: Primary qHTS assay for Inhibitors of ovarian cancer metastasis using an organotypic tumor microenvironment (TME) model.; note: nearly all actives have a fitted effect of over 65% in size;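 for activity change, negative = inhibition: plate controls were DMSO wells for no effect and tomatine positive control wells for full effect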; settings: SKOV3ip1-GFP adhesion/invasion on 3D omental model, fluorescence; series mostly up to 45.8 µM; activity change, negative = inhibition: at the top concentration
How it was run: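 qHTS, 4-pt dose (0.36-46 umol/L); SKOV3ip1-GFP, 1,200 cells/well, no FBS; primary omental fibroblast/mesothelial co-culture 48 h pre-grown; 2 h RT + 16 h 37 C; PBS wash, 4% PFA; GFP count 488/509 nm.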

outcome, inactive:
CCOc1ccccc1NC(=O)Cn1c(=O)n(C(C)C)c(=O)c2oc3ccccc3c21, O=S(=O)(c1ccc(-c2cnc(C3CC3)o2)cc1)N1CCN(c2ccccc2)CC1, Cc1ccc(N(CC(=O)Nc2ccc(C)c(Cl)c2)S(=O)(=O)c2cccs2)cc1, O=C(c1ccc2c(c1)N(Cc1ccc(Cl)cc1)C(=O)c1ccccc1S2(=O)=O)N1CCN(c2ccccn2)CC1, CCCOc1ccc(CNC(=O)CN2C(=O)c3cccnc3Oc3ccc(C)cc32)cc1, O=C(CN1C(=O)COc2ccc(S(=O)(=O)N3CCOCC3)cc21)N1CCN(c2ccccc2F)CC1, CCc1ccc(OCc2cc(=O)n3cc(C)sc3n2)cc1, Cc1ccc(C(=O)c2oc3ccccc3c2NC(=O)Cc2ccccc2)cc1, CC(=O)Nc1cccc(C(=O)NCc2ccc3c(c2)CCN3C(=O)c2ccc(F)cc2)c1, O=C(Nc1ccc(C(F)(F)F)cc1)C(Cc1ccccc1)n1cccc1 (stereo unspecified), Cc1cc(NC(=O)c2ccc(NC(=O)CCS(=O)(=O)c3cccs3)cc2)ccc1Br, Cc1cc(Nc2cc(F)ccc2C)nc(-n2nc(C)cc2C)n1, CN(C)S(=O)(=O)N(CC(=O)NCCSc1ccccc1)c1ccccc1, CC(C)N(Cc1ccccc1)C(=O)CN1C(=O)CSc2ccc(S(=O)(=O)N3CCCC3)cc21, CC1=C(C(=O)Nc2ccccc2)C(c2ccc(O)cc2)n2nc(SCc3ccccc3)nc2N1 (stereo unspecified), Cc1ccc(NS(=O)(=O)c2ccc(-c3cc(C)no3)cc2)c(Br)c1, Cc1ccc(CCNC(=O)c2c(C)nn(-c3ccc(F)cc3)c2-n2cccc2)cc1, Cc1ccccc1NC(=O)CSc1ccc(-c2cccs2)nn1, Cc1ccc(NC(=O)c2c(NC(=O)C(F)(F)F)sc3c2CCCCC3)cc1, COc1ccc(NC(=O)c2cc(C3CC3)nc3c2c(C)nn3-c2ccccc2)cc1OC, CCCN1C(=O)C(O)(CC(=O)c2ccc(CC)cc2)c2cc(Br)ccc21 (stereo unspecified), O=C(Nc1ccc(OC(F)(F)F)cc1)C1CCCN(S(=O)(=O)c2cccc3nonc23)C1 (stereo unspecified), CC1CCN(S(=O)(=O)c2cn(CC(=O)Nc3ccc(F)c(Cl)c3)c(=O)c3ccccc23)CC1

Activity change, negative = inhibition, inactive:
Cc1cccc(CSc2ncccc2C(=O)O)c1 -4.99%, CC1=C(C(=O)OC2CCCC2)C(c2ccccc2C(F)(F)F)CC(=O)N1 (stereo unspecified) -1.77%, COc1cccc(NC(=O)Cn2c(=O)n(-c3ccccc3)c(=O)c3c2c2cc(OC)ccc2n3C)c1 -26.2%, Cc1ccc(CNC(=O)CN2N=C(c3ccccc3)CCC2=O)cc1 0.71%, CC(=O)c1ccc(N2CCN(c3ncnc4c3cnn4-c3cc(Cl)ccc3C)CC2)cc1 6.42%, Cn1c(C(=O)Nc2ccc(OC(F)(F)F)cc2)cc2c(=O)n3ccccc3nc21 0.383%, COc1ccccc1CNC(=O)c1nnn(CC(=O)Nc2c(C)cccc2C)c1N -9.04%, Cc1ccccc1OCC(=O)OCc1cc(=O)n2nc(-c3cccs3)sc2n1 1.76%, Cc1ccc(OCC(=O)Nc2cccc(C(=O)OCc3cc(=O)n4c(C)csc4n3)c2)cc1 14.8%, CCOc1ccccc1NC(=O)c1c(NC(=O)Cc2ccc(OC)cc2)sc2c1CCC2 -8.07%, CCc1cccc(NC(=O)c2ccc3c(c2)c(C)c(C)n3Cc2ccc(F)cc2)c1 6.95%, Cc1ccc(CN2COc3c(Cl)cc4c(-c5ccccc5)cc(=O)oc4c3C2)cc1 -3.32%, CNC(=O)c1ccc2c(C(=Nc3cccc(CN(C)C)c3)c3ccccc3)c(O)[nH]c2c1 2.42%, Cc1ccc(NC(=O)COc2ccc3oc4c(c3c2)CCCC4)cc1C -8.6%, O=C(Nc1cc(Cl)cc(Cl)c1)c1ccc(F)c(S(=O)(=O)N2CCN(c3ccccc3F)CC2)c1 -8.9%, Cc1cc(NC(=O)C2CCCN(S(=O)(=O)c3cccc4nsnc34)C2)ccc1Br (stereo unspecified) 5.14%, CCOc1ccc(NC(=O)N2CCC(N3CCCCC3)CC2)cc1 -2.41%, COc1cc(-c2nc3ccc(Cl)cn3c2Nc2ccc3c(c2)OCCO3)ccc1O -1.76%, Cc1cccc(CSc2nnc3[nH]c(=O)cc(-c4ccccc4)n23)c1 -3.97%, COC(=O)C1CCN(c2csc3ccc(Cl)cc3c2=O)CC1 -7.27%, O=C(NCCCO)c1nn(-c2ccc(Cl)cc2)nc1CO -2.79%, CCC[C@H](N[C@@H](C)C(=O)N1[C@@H]2CCCC[C@H]2C[C@H]1C(=O)O)C(=O)OCC -13.5%, CCc1cccc(NC(=O)c2c(C)oc3nc(C)nc(N4CCCC4)c23)c1 6.54%, Cc1ccc(NC(=O)C(=O)NCC2(c3ccccc3)CCCC2)cc1C -3.09%, CCc1ccc(NCc2cc3ccc(OC)cc3n(CC(=O)Nc3ccc(C)c(Cl)c3)c2=O)cc1 4.08%, CC(C)[C@H](CO)Nc1nc(Nc2ccc(C(=O)O)c(Cl)c2)c2ncn(C(C)C)c2n1 31.7%, COc1ccc(C(=O)N(Cc2cc(OC)c(OC)c(OC)c2)C2CCS(=O)(=O)C2)cc1Cl (stereo unspecified) 4.86%, COc1cccc(NC(=O)Cn2c(=O)n(CCc3ccc(OC)c(OC)c3)c(=O)c3ccccc32)c1 17.8%, COc1cc(OC)c(OC)cc1CNCCCSc1nnnn1C 1.68%, CCOc1ccc2oc(=O)cc(CN3CCN(c4ccccc4OC)CC3)c2c1 -6.99%, COc1ccc(-c2ccc(=O)n(CC(=O)Nc3ccc(OC)c(OC)c3)n2)cc1 4.15%, CC(C)c1ccc(CNc2n[nH]c(-c3ccco3)n2)cc1 -9.55%, COc1ccc(C2c3c(n(C)c4ccccc34)C(=O)N2CC(=O)Nc2ccc(F)cc2)cc1 (stereo unspecified) -4.59%, CCC(=O)N1CCc2cc(OC)c(OC)cc2C1COc1ccc2c(C)cc(=O)oc2c1 (stereo unspecified) 9.33%, CC(C)Oc1ccc(CNC(=O)Cn2nc(N3CCN(c4ccccc4)CC3)ccc2=O)cc1 -6.89%, Cn1cc(S(=O)(=O)N2CCOCC2)cc1C(=O)Nc1cccc(C#N)c1 -12.4%, O=C1N(Cc2ccccc2)c2ccccc2C1(O)c1c[nH]c2ccccc12 (stereo unspecified) -19.8%, Cc1ccc(NC(=O)C2CCCN2S(=O)(=O)c2ccc3c(c2)n(C)c(=O)c(=O)n3C)cc1C (stereo unspecified) 0.735%, Cn1c(=O)c2c(SCC(=O)N3CCc4ccccc43)nc(-c3ccc(Cl)cc3)nc2n(C)c1=O 2.74%, CCn1nnc2cc(C(=O)Nc3ccc(Br)cc3F)ccc21 -5.83%, CCOC(=O)c1c(S(=O)(=O)N2CCC(C(=O)N3CCN(c4ccc(F)cc4)CC3)CC2)c(C)n(C)c1C -0.939%, Cn1ncc2c(NCc3ccc(F)cc3)ncnc21 -3.56%, O=C(NCCCN1CCN(c2ccccc2F)CC1)c1ccc2nc(N3CCCCC3)sc2c1 -27%, CC(=O)c1ccc(NC(=O)COCc2cc(-c3ccc(F)cc3)on2)cc1 9.43%, Cc1c(CCNC(=O)C(C)(C)C)sc2nc(-c3ccc(F)cc3)nn12 -19.5%, COc1cccc(NS(=O)(=O)c2ccc3[nH]cc(C(=O)N4CCCC4)c(=O)c3c2)c1 1.14%, Cc1cc2c(cc3c(SCc4ccccc4Cl)nnc(C)n32)o1 9.45%, CCN(C(=O)C1CCCN(c2ncnc3c2nc2n3CCCCC2)C1)c1cccc(Cl)c1 (stereo unspecified) -3.81%, COc1cc(NC(=O)Cn2nc3c(cc2=O)CC(C)CC3)cc(OC)c1OC (stereo unspecified) 4%, COc1cc(OC)c(N(C)C(=O)c2sc3nc4n(c(=O)c3c2C)CCCCC4)cc1Cl -1.95%, COc1ccc(OCC(=O)Nc2ccc(-c3nc4cc(C)c(C)cc4o3)cc2)cc1 -9.36%, COc1ccc2[nH]cc(CCN=C(NC(=O)c3ccccc3C)Nc3nc(C)cc(C)n3)c2c1 5.97%, Cc1c(C(=O)N2CCC(C)CC2)c(S(=O)(=O)Nc2ccc(OC(F)(F)F)cc2)c(C)n1C -6.92%, Cc1ccccc1C(C(=O)NC1CCCCC1)N(C(=O)CNc1ccc(C#N)cc1)c1cccc(F)c1 (stereo unspecified) 0.402%, N#Cc1c[nH]n2c(NC3CCCC3)c(-c3ccc(Cl)cc3)nc12 -3.61%, O=C(Cn1ncc2c3ccccc3n(Cc3ccc(F)cc3)c2c1=O)NCCCN1CCCCC1 -1.34%, CCOc1ccccc1NC(=O)N1CCC2(CC1)Oc1ccccc1C(=O)N2Cc1ccccc1F 16.5%, O=C(CCS(=O)(=O)c1cccc2nonc12)Nc1ccc(Br)cc1 0.451%, Cc1ccc(CNc2nc3ccc(C)cc3n3nnnc23)cc1 1.79%, CCc1ccc(NC(=O)C(=O)NCCc2sc3nc(-c4ccc(OC)cc4)nn3c2C)cc1 -33.6%, O=c1[nH]c(SCc2ccc([N+](=O)[O-])cc2)nc2c1CCCC2 2.87%, COc1ccc(Cl)cc1NC(=O)CCn1c(=O)oc2ccccc21 -8.83%, Cc1ccc(CNC(=O)Cn2cccc2C(=O)c2ccccc2C)cc1 8.54%, O=C(CSc1nnc(COc2ccccc2)o1)Nc1cc(C(F)(F)F)ccc1Cl 0.173%, O=C(CSc1nccn1Cc1ccccc1)Nc1ccc2c(c1)OCCO2 -4.94%, CCc1ccc(OCC(=O)N(Cc2ccc(C)cc2)Cc2ccco2)cc1 1.87%, Cc1cccc(C)c1-n1ncc(C(=O)NCc2ccc3c(c2)OCO3)c1C1CCN(C(=O)OC(C)(C)C)CC1 -2.35%, CCOc1ccc(CC(=O)Nc2ccc3c(c2)N(C)C(=O)c2ccccc2S3)cc1OCC -12.4%, Cc1cccc(OCC(=O)Nc2nonc2-c2ccc(Br)cc2)c1C -11.3%, CC(=O)N1c2ccc(S(=O)(=O)NCC3CCC(C(=O)Nc4ccccc4C)CC3)cc2CC1C (stereo unspecified) 9.83%, CCCCN(C)CCCNC(=O)c1cc(=O)[nH]c2ccc(S(=O)(=O)N3CCCCC3)cc12 0.162%, Cc1cccc(-n2cc(-c3ccccc3)c3c(NC(C)C)ncnc32)c1 -6.54%, COc1ccc(-n2c(=O)c3ccccc3n(CC(=O)NCCc3ccccc3)c2=O)c(OC)c1 -0.841%
